According to the supplement of paper PMC10338343:
± gives the standard deviation. Over roughly 5,500 sequences, “pre-steady-state target cleavage rate” has its median near 0.1; the highest 2% begin near 0.64. Only a part is listed here, and it is no random draw.

Test system: MIWI (PIWIL1) piRISC loaded with piRNA #2 (30 nt)
Assay: pre-steady-state target cleavage rate (min^-1); MIWI and MILI are mouse PIWI proteins and EfPiwi is from a freshwater sponge; tags in brackets are library labels; higher = faster piRNA-guided slicing of the target
Conditions: guide: piRNA #2 5'p-UUAGGUAACCCAGUAGAUCCAGAGGAAUUC; auxiliary factor: 500 nM mouse GTSF1
In short: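 Cleave-'n-Seq: 1 nM active affinity-purified piRISC with one synthetic guide and 0.1 nM transcribed, DNA-blocked target RNA library were mixed, with or without 500 nM GTSF1 partner protein, in HEPES–potassium acetate buffer at 33 °C for 0–8 or 0–960 min. Uncleaved targets were sequenced and normalised to depth and to weakly complementary targets, three trials were pooled, and k3 was capped at 0.0001 min^-1. The pre-steady-state cleavage rate was fitted […].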

| Sequence | pre-steady-state target cleavage rate |
| --- | --- |
| CUAUUCCUCUGGAUCUACUGGGUGUACCUAA | 0.311 ± 0.044 |
| CUUAUCGUCUGGAUCUACUGGCUUACCUAA | 0.0903 ± 0.034 |
| CUUAUCCUCUGGUUCUACAGGGUUACCUAA | 0.269 ± 0.03 |
| CUAUUCCUCAUGGAUCUACUGGGUUACCUAA | 0.582 ± 0.06 |
| CUUAAGGUCUGGAUCUACUGGGUUACUAA | 0.0698 ± 0.014 |
| CAAUUCCACUGGAUCUACUGGGUUUCCUAA | 0.401 ± 0.056 |
| CUUAACCUCUGAGAUCUACUGGGUUACCUAA | 0.266 ± 0.026 |
| CUUAUCCACUGGAUGUACUGGGUUACCUAA | 0.417 ± 0.05 |
| CUUAAGGAGACCUUCUAGUCGGUUACCUAA | < 0.0001 |
| CUUUUCCUCAUGGAUCUACUGGGUUACCUAA | 0.436 ± 0.052 |
| CUAUUCCUCUGGAUCUACUGGGUAAGCUAA | 0.0968 ± 0.031 |
| CUUAUCCUCUGGAUGUACAGGGUUACCUAA | 0.445 ± 0.026 |
| CUAUUCGUCUGGAUCUACUGGGUUACGUAA | 0.553 ± 0.07 |
| CAAUUCCUCUGGAUCUACUGGGAUUCCUAA | 0.2 ± 0.068 |
| CUUUUCCUCUGGUAGUACUGGGUUACCUAA | 0.141 ± 0.017 |
| CUUAUCCUCAGGAUCUACUGGGUUACCAAA | 0.397 ± 0.083 |
| GAAUUCCUCUGGAUCUACUGGGUUACCGUAA | 0.275 ± 0.053 |
| CUUAAGGUCUGGAUCUACUGGGUUAGCUAA | 0.16 ± 0.025 |
| GAAUUCCUCUGGAUCAACUGGCUUACCUAA | 0.0793 ± 0.012 |
| CUAUUCCUCUGGAUCUACUGGGUAACCAAA | 0.283 ± 0.085 |
| CUUAACCUCUGGAUCUACUGGGAUACCUUA | 0.0769 ± 0.015 |
| CUUUUCCUGUGGAACUACUGGGUUACCUAA | 0.188 ± 0.056 |
| CUUUACCUGUGGAUCUACUGGGUUACCUAA | 0.351 ± 0.029 |
| CUUUUCCUCUGGUUCUACUGCGUUACCUAA | 0.4 ± 0.035 |

| Sequence | pre-steady-state target cleavage rate |
| --- | --- |
| CUUAACCUCUGGAACUACUGCGUUACCUAA | 0.477 ± 0.051 |
| CUUAACCACUGGAUCUACUGGGUUUCCUAA | 0.152 ± 0.019 |
| CUUAAGCUCUGGAACUACUGCGUUACCUAA | 0.246 ± 0.036 |
| CUUUUCCUCUGGAUCUACUGGAUUACCUAA | 0.368 ± 0.036 |
| CUUAAGGUCUGGAUCGACUGGGUUACCUAA | 0.118 ± 0.024 |
| CUUUUCCUCUAGGAUCUACUGGGUUACCUAA | 0.252 ± 0.026 |
| GAAUUCCUCUGGAACUACUGGGUUACCUUA | 0.391 ± 0.097 |
| CUAUUCCUCUCGAUCUACAGGGUUACCUAA | 0.453 ± 0.025 |
| CUUAAGCUCUGGUUCUACUGGGUUACCUUA | 0.133 ± 0.017 |
| GAAUUGCUCUGGAUCUACUGGGUAACCUAA | 0.0363 ± 0.015 |
| CUUAACCUCUGGACCUACUGGGUUACCUAA | 0.0898 ± 0.012 |
| GAAUUCCUCUGGAUCUAGUGGGUUACCUUA | 0.104 ± 0.014 |
| CUUAAGGAGUGGAUCUACUGGGUUACGAAA | 0.0113 ± 0.0074 |
| CUUAAGGUCUGGAUCUACUGGGUCUACCUAA | 0.119 ± 0.015 |
| CAAUUCCUCUGGAUCUACUGGCUUACGUAA | 0.0986 ± 0.037 |
| CUUAAGGUCUGGAUCUACUGGGUGACCUAA | 0.136 ± 0.021 |
| GAAUUCCUCUGGAUCUACUCGGGUUACCUAA | 0.00824 ± 0.0045 |
| CUUUCUCCUCUGGAUCUACUGGGUUACCUAA | 0.265 ± 0.041 |
| CAAUUCGUCUGGAUCUACUGGGUUACCAAA | 0.31 ± 0.056 |
| CUUAAGCUCACGAUCUACUGGGUUACCUAA | 0.364 ± 0.033 |
| CUUAACCUCUGGAUCUACUGCGUAACCUAA | 0.0884 ± 0.018 |
| CUUAAGGACUAGAUCUACUGGGUUACCUAA | 0.0815 ± 0.036 |
| CUUAUCCUCUGGAUCUACUGGCUUUCCUAA | 0.0784 ± 0.024 |
| CUUAAGGAGACGAUCUACUGUGUUACCUAA | 0.0232 ± 0.0092 |

| Sequence | pre-steady-state target cleavage rate |
| --- | --- |
| GAAUUCCUCUGGAUCUAGUGGGUUAGCUAA | 0.0779 ± 0.015 |
| GAAUUCCUCUGGACUCUACUGGGUUACCUAA | 0.183 ± 0.034 |
| CUUAAGGUCUGGAUCUACUGGAUUACCUAA | 0.204 ± 0.034 |
| CUUAAGGACAGGAUCUACUGGGAUACCUAA | 0.012 ± 0.0086 |
| CUUAAGGACUGGAUCAACUGGCUUACCUAA | 0.0268 ± 0.022 |
| CUAUUCGUCUGGAUCUACUGGGUUACCUAA | 0.452 ± 0.052 |
| CUUAAGGACAGGAUCUACUGGGUUUCCUAA | 0.00883 ± 0.0056 |
| GAAUUCCUCUGGAUCUACUGGGUUACCAUA | 0.364 ± 0.05 |
| CUUAAGGUCUCGAUGUACUGGGUUACCUAA | 0.118 ± 0.025 |
| GAAUUCAUCUGGAUCUACUGGGUUACCUAA | 0.37 ± 0.055 |
| CUUUUCCUCUGGAUCUUCUGGCUUACCUAA | 0.0234 ± 0.0076 |
| CUUAAGCUCUCGUUCUACUGGGUUACCUAA | 0.341 ± 0.034 |
| CUUAAGGAGAGGGAUCUACUGGGUUACCUAA | 0.0161 ± 0.0038 |
| CUAUUCCUCUGGAUCUACUCGCUUACCUAA | 0.0038 ± 0.0037 |
| CUAUUCCUGUGGAUCUACUGGGUUACCUUA | 0.399 ± 0.048 |
| CAAUUCCUUUGGAUCUACUGGGUUACCUAA | 0.484 ± 0.061 |
| CUUAACCUCUGGAUCUACUGGGAUUACCUAA | 0.0523 ± 0.0087 |
| GAAUCCUCUGGAUCUACUGGGUUACCUAA | 0.304 ± 0.065 |
| CUAUUCCUCUGGUUCUUCUGGGUUACCUAA | 0.363 ± 0.04 |
| CUUAUCCACUGGAACUACUGGGUUACCUAA | 0.327 ± 0.03 |
| CUUUUCCUCUGGAUCUACUCGGUUAGCUAA | 0.0175 ± 0.0073 |
| CUUUUCCUCUGGAUCUUCUGGGUUACCAAA | 0.175 ± 0.027 |
| CUAUUCCACUGGAUCUACUGGGAUACCUAA | 0.393 ± 0.038 |
| CUUAAGGACUGGAUCUACUGGGUUACCUAG [g2:g22:cont:t1G] | 0.121 ± 0.033 |
